{"source": "PubChem BioAssay AID686978", "about": "(National Center for Advancing Translational Sciences (NCATS), 2013)", "note": "Among all 420,000 compounds or so, about 64,000 (15%) were called active. Inconclusive means that the source gave no clear call. Such entries were picked first, then a sample of the others. Calls follow the shape of the dose curve; as a rule, active = well fitted inhibition curve with a large enough effect; inconclusive = small, poorly fitted or top-dose-only effect; inactive = flat fitted curve, though single readings scatter. No potency is given beside an inconclusive call; the fits are too rough. % is scaled to controls: 0 for no effect and ±100 for the full control effect; potency is read from the fitted curve at half-maximal effect; tags tell the direction and shape of the fitted curve."}
{"assay": "qHTS for Inhibitors of human tyrosyl-DNA phosphodiesterase 1 (TDP1): qHTS in cells in absence of CPT; also: nearly all actives have a fitted effect of over 55% in size", "settings": "DT40 Tdp1-/- hTDP1 cells, no CPT, ATP luminescence, 48 h; activity change, negative = growth inhibition: at 46.2 µM (top of the series) unless noted", "outline": "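Cells were dispensed at 400 per well, compounds added by pin tool, plates incubated ≥48 hr at 37 °C, then CellTiter-Glo added for 30 min at room temperature before luminescence reading. Line: DT40 Tdp1-/- complemented with hTDP1; camptothecin omitted.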"}
{"compound": "COc1ccc(-c2cc(-c3ccccc3)nc(-c3ccc4c(c3)NC(=O)CO4)c2)cc1", "Potency": "inconclusive [inhibitor, single point]"}
{"compound": "COCc1nnc(NC(=O)c2ccc(S(=O)(=O)N(CC(C)C)CC(C)C)cc2)o1", "Potency": "inconclusive [inhibitor, single point]"}
{"compound": "COc1ccccc1CNCCS(=O)(=O)NCc1ccccc1OC", "Potency": "inconclusive [inhibitor, single point]"}
{"compound": "N#C/C(=C\\c1cccs1)C(=O)NCc1ccccc1", "Potency": "active: 20.6 µM"}
{"compound": "Cc1cc(C)cc(NC(=S)N2CCN(c3ncccn3)CC2)c1", "Potency": "inconclusive [inhibitor, partial curve, poor fit]"}
{"compound": "NC(=O)c1cnn(-c2ccc3ccccc3c2)c1N", "Potency": "inconclusive [inhibitor, single point]"}
{"compound": "CC1CCCCC1NC(=O)COC(=O)c1cccn1C", "note": "(stereo unspecified)", "Potency": "inactive"}
{"compound": "CCOC(=O)c1cnc2c(C)cc(C)cc2c1NCCCN1CCOCC1", "Potency": "inconclusive [inhibitor, partial curve, poor fit]"}
{"compound": "COc1ccc(NS(=O)(=O)c2ccc(NC(=O)CCNS(=O)(=O)c3ccc(C)cc3)cc2)cc1", "Potency": "inconclusive [inhibitor, single point]"}
{"compound": "CNC(=S)N/N=C(\\C)c1ccc(N2CCOCC2)cc1", "Potency": "inconclusive [inhibitor, single point]"}
{"compound": "Cc1nn(-c2ccc(C(=O)O)cc2)c(N)c1-c1ccccc1", "activity change, negative = growth inhibition": "inconclusive: -4.96% [inhibitor]"}
{"compound": "CCCc1cc(=O)n2[nH]c(-c3ccccc3)cc2n1", "Potency": "inconclusive [inhibitor, partial curve]"}
{"compound": "CC(C)CC(NC(=O)C1CCC(=O)N1)C(=O)NC(CC(C)C)C(=O)N1CCCC1C(N)=O", "note": "(stereo unspecified)", "Potency": "inactive"}
{"compound": "CCCCN(C(=O)CCCc1nc2ccccc2s1)c1c(N)n(CC(C)C)c(=O)[nH]c1=O", "Potency": "inactive"}
{"compound": "O=C(NCCNC(=O)c1ccccc1Br)c1cccnc1", "Potency": "inactive"}
{"compound": "Cc1ccc(NC(=O)Cn2nnc(-c3ccccc3-n3cnnn3)n2)c(C)c1", "Potency": "inconclusive [inhibitor, partial curve]"}
{"compound": "CCOc1ccc(NC(=O)CCS(=O)(=O)c2ccc(Br)s2)cc1", "Potency": "active: 14.6 µM"}
{"compound": "OC(c1ccccc1)(c1ccccc1)C1CCN(C(=S)NC2CCCC2)CC1", "Potency": "inconclusive [inhibitor, single point]"}
{"compound": "Cc1cccc(NC(=O)CN2C(=O)COc3ccc(S(=O)(=O)N4CCC(C)CC4)cc32)c1C", "Potency": "inconclusive [inhibitor, single point]"}
{"compound": "COc1ccc(N2CC(C(=O)N/N=C/c3ccc(C)cc3)CC2=O)cc1", "note": "(stereo unspecified)", "Potency": "active: 1.64 µM"}
{"compound": "COc1ccc(N2CCN(CC(=O)Nc3ccc(SC(F)F)cc3)CC2)cc1", "Potency": "inconclusive [inhibitor, partial curve]"}
{"compound": "Cc1ccc(C(=O)NCC(=O)N2CCc3ccccc3C2)cc1C", "Potency": "inconclusive [inhibitor, single point]"}
{"compound": "CCOC(=O)c1c(C)c(-c2ccccc2)n(CC(=O)Nc2cccc(F)c2)c1C", "Potency": "inconclusive [inhibitor, single point]"}
{"compound": "Cc1nn(C)cc1C(=O)c1ccccc1", "Potency": "inactive"}
{"compound": "N#Cc1c(N)n(-c2ccccc2)c(=O)c2cc([N+](=O)[O-])ccc12", "Potency": "inconclusive [inhibitor, single point]"}
{"compound": "O=C1CCN(CCc2ccccc2)CCN1[C@H](COc1ccccc1)c1ccccc1", "Potency": "active: 14.1 µM"}
{"compound": "Cc1ccc(CC(=O)Nc2ccncc2)cc1", "Potency": "active: 4.61 µM"}
{"compound": "Cc1n[nH]c(=O)nc1N/N=C/c1ccc(O)c([N+](=O)[O-])c1", "Potency": "inconclusive [inhibitor, single point]"}
{"compound": "COCCOc1ccc(C(F)(F)F)cc1Nc1nc2ccccc2o1", "Potency": "inconclusive [inhibitor, single point]"}
{"compound": "COCCCNc1ncnc2c1sc1nc(-c3ccco3)c3c(c12)CC(C)(C)OC3", "Potency": "active: 14.6 µM"}
{"compound": "CC(NC(=O)c1ccco1)c1ccc2c(c1)OCO2", "note": "(stereo unspecified)", "Potency": "inactive"}
{"compound": "O=C(Nc1ccc(O)c2c(=O)cc(-c3ccccc3Cl)oc12)c1ccc(F)cc1", "Potency": "inactive"}
{"compound": "CSc1nsc(/C=C/Nc2ccc(C)c(C)c2)c1C#N", "Potency": "inconclusive [inhibitor, single point]"}
{"compound": "Cc1ccc(S(=O)(=O)N(CC(=O)N2CCc3ccccc3C2)c2ccc(C)c(C)c2)cc1", "Potency": "active: 18.4 µM"}
{"compound": "O=C(Nc1cc(F)ccc1F)c1ccc2c(c1)nnn2C1CCCC1", "Potency": "inconclusive [inhibitor, partial curve, poor fit]"}
{"compound": "FC(F)(F)c1cccc(-c2cc3nc(NCCOc4ccccc4)ccn3n2)c1", "Potency": "inconclusive [inhibitor, single point]"}
{"compound": "O=[N+]([O-])c1ccc(COc2cccc(CN3CCOCC3)c2)cc1", "Potency": "active: 23.1 µM"}
{"compound": "CC(NC(=S)Nc1cccc(F)c1)C(c1cccs1)N1CCOCC1", "note": "(stereo unspecified)", "Potency": "inconclusive [inhibitor, partial curve]"}
{"compound": "COc1ccc(C(=O)C2CCCN(S(=O)(=O)c3cccnc3)C2)c(C)c1", "note": "(stereo unspecified)", "Potency": "inconclusive [inhibitor, partial curve]"}
{"compound": "COc1cc(-c2noc(C)c2C#CCCN2C(=O)c3ccccc3C2=O)cc(OC)c1OC", "Potency": "inconclusive [inhibitor, full curve, poor fit]"}
{"compound": "Cc1cccc(-c2nc(CCNC(=O)c3ccccc3Br)cs2)c1", "Potency": "active: 20.6 µM"}
{"compound": "CCCCCc1ccc(S(=O)(=O)Nc2cc(C)ccn2)cc1", "activity change, negative = growth inhibition": "inconclusive: -34.3% [inhibitor]"}
{"compound": "Cc1ccc(CN2C3=NCCN3c3ccccc32)cc1", "Potency": "inconclusive [inhibitor, single point]"}
{"compound": "CCC(CC)C(=O)Nc1ccc(C(=O)Nc2cc(C)on2)cc1", "Potency": "inactive"}
{"compound": "CC(=O)c1c(N2CCN(c3ccc(F)cc3)CC2)nc(=S)n(Cc2ccccc2)c1C", "Potency": "inconclusive [inhibitor, single point]"}
{"compound": "O/N=C/c1ccc(OCc2ccccc2)c(Br)c1", "Potency": "inconclusive [inhibitor, full curve, poor fit]"}
